Source: the supplement of paper PMC4604168 (melanoma cell lines)
Some of the results follow. Single values are uncertain, as repeats are few or missing.

The molecules below were run on A375 (assay: cell count relative to DMSO control; melanoma cells; higher = more viable cells). Settings: library dose: standard library concentration; 72 h.
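Also: cells treated in 1,536-well plates, then fixed and DAPI-stained, with nuclei counted from automated high-throughput microscope images.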

**Q.** How did the cell count turn out when `Cc1cc(Nc2cc(N3CCN(C)CC3)nc(Sc3ccc(NC(=O)C4CC4)cc3)n2)n[nH]1` [Tozasertib] + Nc1ccn([C@@H]2O[C@H](CO)[C@@H](O)C2(F)F)c(=O)n1 [gemcitabine] (first compound 0.03 µM, partner dose 0.002 µM) was run?
**A.** 110%

**Q.** With `CC[C@]1(O)C[C@H]2CN(CCc3c([nH]c4ccccc34)[C@@](C(=O)OC)(c3cc4c(cc3OC)N(C=O)[C@H]3[C@@](O)(C(=O)OC)[C@H](OC(C)=O)[C@]5(CC)C=CCN6CC[C@]43[C@@H]65)C2)C1` [vincristine] + COc1cc(Nc2ncc(F)c(Nc3ccc4c(n3)NC(=O)C(C)(C)O4)n2)cc(OC)c1OC [Tamatinib] (first compound 0.0005 µM, partner dose 2 µM) as the molecule, how does the cell count read?
**A.** 86.2%

**Q.** For `CC[C@]1(O)C[C@H]2CN(CCc3c([nH]c4ccccc34)[C@@](C(=O)OC)(c3cc4c(cc3OC)N(C=O)[C@H]3[C@@](O)(C(=O)OC)[C@H](OC(C)=O)[C@]5(CC)C=CCN6CC[C@]43[C@@H]65)C2)C1` [vincristine] + C[C@]1(c2nc3c(C(N)=O)cccc3[nH]2)CCCN1 [Veliparib] (first compound 0.0005 µM, partner dose 7 µM), which cell count is on record?
**A.** 82.6%

**Q.** With `N#CC[C@H](C1CCCC1)n1cc(-c2ncnc3[nH]ccc23)cn1` [ruxolitinib] + OCc1c[nH]c2ccccc12 [Indole-3-carbinol] (first compound 5 µM, partner dose 4 µM) as the molecule, how does the cell count read?
**A.** 127%

**Q.** With `Cc1cc(Nc2cc(N3CCN(C)CC3)nc(Sc3ccc(NC(=O)C4CC4)cc3)n2)n[nH]1` [Tozasertib] + CO[C@@H]1[C@H](N(C)C(=O)c2ccccc2)C[C@H]2O[C@]1(C)n1c3ccccc3c3c4c(c5c6ccccc6n2c5c31)C(=O)NC4 [Midostaurin] (first compound 0.03 µM, partner dose 0.4 µM) as the molecule, how does the cell count read?
**A.** 64%

**Q.** How did the cell count turn out when `N#CC[C@H](C1CCCC1)n1cc(-c2ncnc3[nH]ccc23)cn1` [ruxolitinib] + COCC[n+]1c2c(n(Cc3cnccn3)c1C)C(=O)c1ccccc1C2=O [YM155] (first compound 5 µM, partner dose 0.002 µM) was run?
**A.** 108%

**Q.** With `N#CC[C@H](C1CCCC1)n1cc(-c2ncnc3[nH]ccc23)cn1` [ruxolitinib] + NC1(c2ccc(-c3nc4ccn5c(=O)[nH]nc5c4cc3-c3ccccc3)cc2)CCC1 [MK2206] (first compound 5 µM, partner dose 2 µM) as the molecule, how does the cell count read?
**A.** 130%

**Q.** Which cell count does the source give for `Cc1cc(Nc2cc(N3CCN(C)CC3)nc(Sc3ccc(NC(=O)C4CC4)cc3)n2)n[nH]1` [Tozasertib] + CC(C)CCN1c2nc(Nc3cc(F)c(O)c(F)c3)ncc2N(C)C(=O)C1C [BID1870] (first compound 0.03 µM, partner dose 1 µM) here?
**A.** 104%

**Q.** For `CC[C@]1(O)C[C@H]2CN(CCc3c([nH]c4ccccc34)[C@@](C(=O)OC)(c3cc4c(cc3OC)N(C=O)[C@H]3[C@@](O)(C(=O)OC)[C@H](OC(C)=O)[C@]5(CC)C=CCN6CC[C@]43[C@@H]65)C2)C1` [vincristine] + C=CCNC1=C2C[C@@H](C)C[C@H](OC)[C@H](O)[C@@H](C)/C=C(\C)[C@H](OC(N)=O)[C@@H](OC)/C=C\C=C(/C)C(=O)NC(=CC1=O)C2=O [Tanespimycin] (first compound 0.0005 µM, partner dose 0.01 µM), which cell count is on record?
**A.** 87.5%

**Q.** With `N#CC[C@H](C1CCCC1)n1cc(-c2ncnc3[nH]ccc23)cn1` [ruxolitinib] + Cc1cn(-c2cc(NC(=O)c3ccc(C)c(Nc4nccc(-c5cccnc5)n4)c3)cc(C(F)(F)F)c2)cn1 [nilotinib] (first compound 5 µM, partner dose 1 µM) as the molecule, how does the cell count read?
**A.** 154%

**Q.** For `N#CC[C@H](C1CCCC1)n1cc(-c2ncnc3[nH]ccc23)cn1` [ruxolitinib] + CO[C@@H]1[C@H](N(C)C(=O)c2ccccc2)C[C@H]2O[C@]1(C)n1c3ccccc3c3c4c(c5c6ccccc6n2c5c31)C(=O)NC4 [Midostaurin] (first compound 5 µM, partner dose 0.4 µM), which cell count is on record?
**A.** 91.4%

**Q.** Which cell count does the source give for `N#CC[C@H](C1CCCC1)n1cc(-c2ncnc3[nH]ccc23)cn1` [ruxolitinib] + O=C(/C=C/c1cccnc1)NCCCCC1CCN(C(=O)c2ccccc2)CC1 [FK866] (first compound 5 µM, partner dose 0.05 µM) here?
**A.** 151%

**Q.** How did the cell count turn out when `Cc1cc(Nc2cc(N3CCN(C)CC3)nc(Sc3ccc(NC(=O)C4CC4)cc3)n2)n[nH]1` [Tozasertib] + Cn1c(=O)n(-c2ccc(C(C)(C)C#N)cc2)c2c3cc(-c4cnc5ccccc5c4)ccc3ncc21 [NVP-BEZ235] (first compound 0.03 µM, partner dose 0.02 µM) was run?
**A.** 101%

**Q.** Which cell count does the source give for `Cc1cc(Nc2cc(N3CCN(C)CC3)nc(Sc3ccc(NC(=O)C4CC4)cc3)n2)n[nH]1` [Tozasertib] + N#CC[C@H](C1CCCC1)n1cc(-c2ncnc3[nH]ccc23)cn1 [ruxolitinib] (first compound 0.03 µM, partner dose 5 µM) here?
**A.** 145%

**Q.** With `Cc1cc(Nc2cc(N3CCN(C)CC3)nc(Sc3ccc(NC(=O)C4CC4)cc3)n2)n[nH]1` [Tozasertib] + CS(=O)(=O)CCNCc1ccc(-c2ccc3ncnc(Nc4ccc(OCc5cccc(F)c5)c(Cl)c4)c3c2)o1 [lapatinib] (first compound 0.03 µM, partner dose 4 µM) as the molecule, how does the cell count read?
**A.** 145%

**Q.** How did the cell count turn out when `Cc1cc(Nc2cc(N3CCN(C)CC3)nc(Sc3ccc(NC(=O)C4CC4)cc3)n2)n[nH]1` [Tozasertib] + Nc1nc(F)nc2c1ncn2[C@@H]1O[C@H](CO)[C@@H](O)[C@@H]1O [fludarabine] (first compound 0.03 µM, partner dose 1 µM) was run?
**A.** 28.2%

**Q.** With `CC[C@]1(O)C[C@H]2CN(CCc3c([nH]c4ccccc34)[C@@](C(=O)OC)(c3cc4c(cc3OC)N(C=O)[C@H]3[C@@](O)(C(=O)OC)[C@H](OC(C)=O)[C@]5(CC)C=CCN6CC[C@]43[C@@H]65)C2)C1` [vincristine] + Cc1ccc(NC(=O)c2cccc(N(C)C)c2)cc1NC(=O)c1ccc(O)cc1 [ZM336372] (first compound 0.0005 µM, partner dose 10 µM) as the molecule, how does the cell count read?
**A.** 77.7%

**Q.** How did the cell count turn out when `CC[C@]1(O)C[C@H]2CN(CCc3c([nH]c4ccccc34)[C@@](C(=O)OC)(c3cc4c(cc3OC)N(C=O)[C@H]3[C@@](O)(C(=O)OC)[C@H](OC(C)=O)[C@]5(CC)C=CCN6CC[C@]43[C@@H]65)C2)C1` [vincristine] + CC(C)C[C@H](NC(=O)[C@H](Cc1ccccc1)NC(=O)c1cnccn1)B(O)O [Bortezomib] (first compound 0.0005 µM, partner dose 0.005 µM) was run?
**A.** 82.1%

**Q.** `Cc1cc(Nc2cc(N3CCN(C)CC3)nc(Sc3ccc(NC(=O)C4CC4)cc3)n2)n[nH]1` [Tozasertib] + C[C@@H]1CCN(C(=O)CC#N)C[C@@H]1N(C)c1ncnc2[nH]ccc12 [CP690550] (first compound 0.03 µM, partner dose 5 µM) was tested. Which cell count did it give?
**A.** 94.8%

**Q.** With `Cc1cc(Nc2cc(N3CCN(C)CC3)nc(Sc3ccc(NC(=O)C4CC4)cc3)n2)n[nH]1` [Tozasertib] + COc1ccc(C2=N[C@@H](c3ccc(Cl)cc3)[C@@H](c3ccc(Cl)cc3)N2C(=O)N2CCNC(=O)C2)c(OC(C)C)c1 [Nutlin-3] (first compound 0.03 µM, partner dose 0.5 µM) as the molecule, how does the cell count read?
**A.** 75.8%

**Q.** How did the cell count turn out when `N#CC[C@H](C1CCCC1)n1cc(-c2ncnc3[nH]ccc23)cn1` [ruxolitinib] + CCN(CC)CCCCNc1ncc2cc(-c3cc(OC)cc(OC)c3)c(NC(=O)NC(C)(C)C)nc2n1 [PD173074] (first compound 5 µM, partner dose 0.5 µM) was run?
**A.** 142%

**Q.** Which cell count does the source give for `Cc1cc(Nc2cc(N3CCN(C)CC3)nc(Sc3ccc(NC(=O)C4CC4)cc3)n2)n[nH]1` [Tozasertib] + CCCCCCCCCCCCCCCCCCOP(=O)([O-])OC1CC[N+](C)(C)CC1 [Perifosine] (first compound 0.03 µM, partner dose 2 µM) here?
**A.** 73.8%

**Q.** How did the cell count turn out when `Cc1cc(Nc2cc(N3CCN(C)CC3)nc(Sc3ccc(NC(=O)C4CC4)cc3)n2)n[nH]1` [Tozasertib] + O=C(CCCCCCC(=O)Nc1ccccc1)NO [vorinostat] (first compound 0.03 µM, partner dose 0.4 µM) was run?
**A.** 119%

**Q.** How did the cell count turn out when `N#CC[C@H](C1CCCC1)n1cc(-c2ncnc3[nH]ccc23)cn1` [ruxolitinib] + CCCS(=O)(=O)Nc1ccc(F)c(C(=O)c2c[nH]c3ncc(Cl)cc23)c1F [PLX4720] (first compound 5 µM, partner dose 0.4 µM) was run?
**A.** 107%

**Q.** `Cc1cc(Nc2cc(N3CCN(C)CC3)nc(Sc3ccc(NC(=O)C4CC4)cc3)n2)n[nH]1` [Tozasertib] + CN(C)S(=O)(=O)c1ccc2c(c1)/C(=C/c1cc3c([nH]1)CCCC3)C(=O)N2 [SU6656] (first compound 0.03 µM, partner dose 2 µM) was tested. Which cell count did it give?
**A.** 130%

**Q.** Which cell count does the source give for `Cc1cc(Nc2cc(N3CCN(C)CC3)nc(Sc3ccc(NC(=O)C4CC4)cc3)n2)n[nH]1` [Tozasertib] + Cc1cc(N2CCOCC2)cc2[nH]c(-c3c(NC[C@@H](O)c4cccc(Cl)c4)cc[nH]c3=O)nc12 [BMS536924] (first compound 0.03 µM, partner dose 1 µM) here?
**A.** 95.2%

**Q.** For `Cc1cc(Nc2cc(N3CCN(C)CC3)nc(Sc3ccc(NC(=O)C4CC4)cc3)n2)n[nH]1` [Tozasertib] + C[C@]1(c2nc3c(C(N)=O)cccc3[nH]2)CCCN1 [Veliparib] (first compound 0.03 µM, partner dose 7 µM), which cell count is on record?
**A.** 89.3%
